Measurements published in the supplement of paper PMC10126150.
Values marked as one replicate rest on one cluster of the flow cell; about a third of the high ones do not repeat.
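Also: ATP exposure 15 min at 22 °C before imaging.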

What follows are sequences tested on ATP (assay: switch fluorescence ratio, 500 uM ATP over buffer (Cy3 cluster intensity, sum of 5 cycles each) (fold (ratio)); higher = stronger signal-on switching upon ATP binding; sequences stand for … in TCGTCGGCAGCGTCAGATGTGTATAAGAGACAGTTTTTTTTTTTTTTTTTTTTTTTTT…TC). Details: aptamer strand: ATP DNA aptamer (quencher-CACCTGGGGGAGTATTGCGGAGGAAGG + anchor), 100 nM annealed; ATP concentration: 500 uM; one replicate.
Summary of the method: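 The fluorescence ratio divides summed target-cycle Cy3 intensity by summed buffer-cycle Cy3 intensity for each cluster and is averaged per switch-domain sequence. Cy3-labelled switching-strand clusters on a modified Illumina MiSeq flow-cell were annealed to 100 nM quencher-labelled ATP aptamer, then imaged in selection buffer and again after 15 min with 500 uM ATP at 22 °C. Five such cycles were run, with NaOH stripping and re-annealing between them, and clusters outside 100-1000 RFU were excluded.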
Sequence TGTATCTACT has a switch fluorescence ratio of 1.01. Sequence AGCATAGTGT has a switch fluorescence ratio of 0.979. In the case of GGGATCATTT, the switch fluorescence ratio is reported as 1. GCCGTAGCCG was tested, and the switch fluorescence ratio was 1.05. In the case of GAAAGACCAT, the switch fluorescence ratio is reported as 0.98. Work on GGTCCGAGCA yielded a switch fluorescence ratio of 1.41. For TGGGGACACA, the switch fluorescence ratio was 1.08. In the case of ATTCAGTGAC, the switch fluorescence ratio is reported as 1.05. Work on ACATCAAGCT yielded a switch fluorescence ratio of 1.05. GAGTAACTGA showed a switch fluorescence ratio of 1.01. In the case of AGGGCCGATG, the switch fluorescence ratio is reported as 1.01. TTAGTGTCGC showed a switch fluorescence ratio of 1.03. GGTCCGGTAA gave a switch fluorescence ratio of 1.05. GATCGCCCAA showed a switch fluorescence ratio of 1.03. AAGTCATCTC gave a switch fluorescence ratio of 0.965. Work on CTAACCACTG yielded a switch fluorescence ratio of 1.01. Work on AACATGAGGC yielded a switch fluorescence ratio of 1.07. With AAAGGATCTC the switch fluorescence ratio was 1. Sequence ACTTTGTTAC has a switch fluorescence ratio of 1.03. In the case of GCCTATGGTC, the switch fluorescence ratio is reported as 1.02. ACGAGCTTAT showed a switch fluorescence ratio of 1.26. Sequence CTCGTAAAGC has a switch fluorescence ratio of 1.56. With GGGCTCCCGC the switch fluorescence ratio was 1.01. TCGATACAG showed a switch fluorescence ratio of 1.06. TTTCTATACC showed a switch fluorescence ratio of 1.04. With AATGAATCCT the switch fluorescence ratio was 1.07. For TGCACTTTAT, the switch fluorescence ratio was 1.02. CGAATCCCCG was tested, and the switch fluorescence ratio was 1.28. TCACATTGTT showed a switch fluorescence ratio of 1.03. ATTAAGTTGT showed a switch fluorescence ratio of 0.972. In the case of GGTAATAGTG, the switch fluorescence ratio is reported as 1.01. With TGCAGCGCAT the switch fluorescence ratio was 1.32. CATGGTAGGT showed a switch fluorescence ratio of 1.02. CCGTAATTA gave a switch fluorescence ratio of 3.92. ACTTCTCATT gave a switch fluorescence ratio of 1.08. ACGAAAGAAA was tested, and the switch fluorescence ratio was 0.991. Work on GCTCCAACC yielded a switch fluorescence ratio of 1.22. Work on TGCGGGAGAT yielded a switch fluorescence ratio of 1.01. ATGAATTGCC gave a switch fluorescence ratio of 1.04. Sequence TTGAACTCTA has a switch fluorescence ratio of 1.04. For AATACCTTAG, the switch fluorescence ratio was 1.04. Work on CCCAATGAG yielded a switch fluorescence ratio of 1.04. In the case of TTTCTGAGGC, the switch fluorescence ratio is reported as 1.01. For CGCGAGCGGT, the switch fluorescence ratio was 1.04. Sequence GACGAATGTT has a switch fluorescence ratio of 0.974. ATTACCGGGA was tested, and the switch fluorescence ratio was 1.05. Sequence GTGAATTGTT has a switch fluorescence ratio of 0.974. For TGACGCTCGC, the switch fluorescence ratio was 1.24. With CATAAGAAC the switch fluorescence ratio was 1. TTACGCGAA was tested, and the switch fluorescence ratio was 1.03. TCGTAGTTCG gave a switch fluorescence ratio of 1.1. Sequence GTCTATGGGG has a switch fluorescence ratio of 0.986. In the case of CATGTGGCCC, the switch fluorescence ratio is reported as 0.995. GGAACCTAAT gave a switch fluorescence ratio of 1.02. GCCGTTGGC showed a switch fluorescence ratio of 1. Sequence GATGGTCGA has a switch fluorescence ratio of 0.971. Work on GTATTCTACG yielded a switch fluorescence ratio of 0.872. CTCGGGCAT showed a switch fluorescence ratio of 1.19. Work on AAGTACCTGG yielded a switch fluorescence ratio of 1.27. GGTGTCCCC showed a switch fluorescence ratio of 1.09. CTGATTCGGC showed a switch fluorescence ratio of 1.02. GGATCGCTTT was tested, and the switch fluorescence ratio was 1.01. In the case of CGTGTACTAG, the switch fluorescence ratio is reported as 0.959. In the case of CACCCTAAGC, the switch fluorescence ratio is reported as 1.07. With TACGGGTGAT the switch fluorescence ratio was 1.03. Sequence GTCCTTGTTG has a switch fluorescence ratio of 0.994. In the case of AGTCTACCCT, the switch fluorescence ratio is reported as 1.07. For TGCCATTGTC, the switch fluorescence ratio was 1.02. Work on TTATGTGCAC yielded a switch fluorescence ratio of 1.04. Work on AGCGACGCAT yielded a switch fluorescence ratio of 3. For TTATTCCCTG, the switch fluorescence ratio was 1.02. ATACGGGCGG showed a switch fluorescence ratio of 1.04. For GTCAGGAGTA, the switch fluorescence ratio was 0.965. TAAGAAATAA gave a switch fluorescence ratio of 0.99. For ACCATTGGTA, the switch fluorescence ratio was 1.01. AGTTGTCTGA showed a switch fluorescence ratio of 0.93. Sequence ATTAGGGCTG has a switch fluorescence ratio of 1.04. TCATTCTCG showed a switch fluorescence ratio of 0.954. With ATGCTCCGGG the switch fluorescence ratio was 1.1. CGATATATGG gave a switch fluorescence ratio of 0.986. For GGTAATCTGC, the switch fluorescence ratio was 0.968. TGCGAAAAGC showed a switch fluorescence ratio of 1. Sequence GTTAATATGA has a switch fluorescence ratio of 1. Work on TCATCTGTCT yielded a switch fluorescence ratio of 0.979. For CCAAGTGTGT, the switch fluorescence ratio was 1.03. ACGGTTGGGA gave a switch fluorescence ratio of 1.08. Sequence AGGTCATTGC has a switch fluorescence ratio of 0.994. CGTTTCGGAA was tested, and the switch fluorescence ratio was 1.03. With AGCGCCGCG the switch fluorescence ratio was 1.02. For CGCGGTTTCG, the switch fluorescence ratio was 1.01. TACTACAGTT gave a switch fluorescence ratio of 1.04. ATATTTCACC showed a switch fluorescence ratio of 1.05. For AATTTAATAA, the switch fluorescence ratio was 0.984. With CTCAGAGGAT the switch fluorescence ratio was 0.997. In the case of AAACTTCAGC, the switch fluorescence ratio is reported as 1.04. GTCGCAATTA gave a switch fluorescence ratio of 1.69. In the case of GTCATCCTTT, the switch fluorescence ratio is reported as 0.964. GTAACTGATT was tested, and the switch fluorescence ratio was 1.02. In the case of ACCCAACGGA, the switch fluorescence ratio is reported as 1.19. Work on CCGGCGGCGG yielded a switch fluorescence ratio of 1.05. ACTCTGAATG gave a switch fluorescence ratio of 1.08. CTACGCTAT showed a switch fluorescence ratio of 5.02. TAATTGTCCC was tested, and the switch fluorescence ratio was 1.01. GGGGGCGT showed a switch fluorescence ratio of 0.966. In the case of GGGTGTAAGT, the switch fluorescence ratio is reported as 1.04. Work on GAGTCTCGAA yielded a switch fluorescence ratio of 0.975. CTTAACCTCA showed a switch fluorescence ratio of 1.01. For ATCTTACCTA, the switch fluorescence ratio was 1.07. Work on TCATCAGTTA yielded a switch fluorescence ratio of 1.04. In the case of AAGTTAGCAT, the switch fluorescence ratio is reported as 1.02. In the case of AATAGACTAT, the switch fluorescence ratio is reported as 0.993. In the case of TTCGTTGAT, the switch fluorescence ratio is reported as 1.03. Sequence TTGAGTACTC has a switch fluorescence ratio of 1.04. TTTAAATTCC gave a switch fluorescence ratio of 1.91. Sequence GTTAGGGTGT has a switch fluorescence ratio of 1.08. With GCGATGGTTG the switch fluorescence ratio was 0.966. TCCTGAGGTT was tested, and the switch fluorescence ratio was 1.01. ACAGTGAATA was tested, and the switch fluorescence ratio was 1.04. With TAAGTAGTCC the switch fluorescence ratio was 1.03. Sequence AGAGTCATCC has a switch fluorescence ratio of 1.01. GCAATACAT was tested, and the switch fluorescence ratio was 5.94. AAAACAGTTG gave a switch fluorescence ratio of 1.05. In the case of CCGCTGAGTT, the switch fluorescence ratio is reported as 2.56. With CATCACAATC the switch fluorescence ratio was 3.05. GGTACATACT gave a switch fluorescence ratio of 1.25. With CATGACAGTA the switch fluorescence ratio was 1.12. GCCTCACATT was tested, and the switch fluorescence ratio was 0.966. With CATTGTCTGA the switch fluorescence ratio was 0.959. For CAGGTTTAC, the switch fluorescence ratio was 1.01. In the case of AAGCGCTCTG, the switch fluorescence ratio is reported as 0.956. Sequence CATAGGCATG has a switch fluorescence ratio of 0.988. TGGATCCAAG gave a switch fluorescence ratio of 0.996. For TACAAGTGGC, the switch fluorescence ratio was 1.04. With TGACAGCGGA the switch fluorescence ratio was 1.03. For TAGCGAGTT, the switch fluorescence ratio was 1.08. AACGTCATTG showed a switch fluorescence ratio of 1.1. TGCCCGGGCT was tested, and the switch fluorescence ratio was 0.983. Sequence TAAAACATT has a switch fluorescence ratio of 1. TGTAGTCGC was tested, and the switch fluorescence ratio was 1.03. With ACGTAGGAGA the switch fluorescence ratio was 1.07. In the case of ACGGAGCTGT, the switch fluorescence ratio is reported as 2.61. CCGGGCAGTC showed a switch fluorescence ratio of 2.74. AACGAATACG was tested, and the switch fluorescence ratio was 1.05. With TCTCGGGTCG the switch fluorescence ratio was 1.05. In the case of GTGTTTCTGA, the switch fluorescence ratio is reported as 1. In the case of TGCTGCGTTT, the switch fluorescence ratio is reported as 0.997. For ATAACATGGT, the switch fluorescence ratio was 1.06. GAACTCGAAG was tested, and the switch fluorescence ratio was 1.06. With ATTATCGGCA the switch fluorescence ratio was 1.06. For ACGTCTGAGC, the switch fluorescence ratio was 1.02. TCTGACGTTA gave a switch fluorescence ratio of 1.81. Sequence TCTTTAATG has a switch fluorescence ratio of 1.03. TCCTGCTGTC was tested, and the switch fluorescence ratio was 1.24. AAAACGGGAG showed a switch fluorescence ratio of 1.04. For ATCCGTTAGA, the switch fluorescence ratio was 1.04. For GAAGGAGCTA, the switch fluorescence ratio was 1. Work on CTCTTTAACG yielded a switch fluorescence ratio of 0.986. TCGGCCGTGA gave a switch fluorescence ratio of 1.1.
